Measured values: PubChem BioAssay AID2546 (National Center for Advancing Translational Sciences (NCATS), 2010)
Screen size: about 310,000 compounds; about 11,000 (3.5%) were called active. This list was built around the results that the source calls inconclusive (neither active nor inactive); the mix of calls is not that of the screen. Calls follow the shape of the dose curve; as a rule, active = well fitted inhibition curve with a large enough effect; inconclusive = small, poorly fitted or top-dose-only effect, or effect the other way; inactive = flat fitted curve, though single readings scatter. No potency is given beside an inconclusive call; the fits are too rough.

Test: VP16 counterscreen qHTS for inhibitors of ROR gamma transcriptional activity;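 also: Gal4-VP16 expression switched on by copper sulfate through the metallothionein promoter; nearly all actives have a fitted effect of over 50% in size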
Details: Drosophila S2 Gal4-VP16 UAS-luciferase, luminescence, 20 h; series mostly up to 53.6 µM
Potency is read from the fitted curve at half-maximal effect; tags tell the direction and shape of the fitted curve.

SMILES | Potency
CCOc1ccc(NC(=S)NCc2nc3ccccc3[nH]2)cc1 | inactive
C=CCN1C(=O)/C(=c2\sc3nc(=O)c(Cc4ccccc4)nn3c2=O)c2ccccc21 | inconclusive [inhibitor, single point]
Cc1c(CNC(=O)C2CCC(=O)N(CCc3ccccc3)C2)cnn1C (centres undefined) | inactive
CCOc1ccc(CN(C)CC(O)COC(c2ccc(OC)cc2)c2ccc(OC)cc2)cc1 (centres undefined) | inconclusive [inhibitor, single point]
O=C(/C=C/c1ccc(O)c(O)c1)OC1C[C@](O)(C(=O)O)C[C@@H](O)[C@H]1O (some centres undefined) | inactive
CC1=NN(c2ccc(C(=O)OC(C)C)cc2)C(=O)/C1=C\C=C\c1ccco1 | inconclusive [inhibitor, single point]
COc1cccc(C2NC(=S)NC(C)=C2C(=O)c2ccccc2)c1OC (centres undefined) | inconclusive [inhibitor, single point]
C/C(=N\Nc1nc(C)cc(=O)[nH]1)C1CC1 | inactive
O=C(Nc1nc2ccccc2[nH]1)c1cccc(Cl)c1 | active: 4.47 µM
CCC[C@H]1C[C@H](C(=O)N[C@@H]([C@H]2O[C@@H](SC)[C@@H](O)[C@@H](O)[C@@H]2O)[C@H](C)Cl)N(C)C1 | inconclusive [activator, full curve, poor fit]
O=C(COC(=O)c1ccccc1NC(=O)c1ccccc1)c1cccc([N+](=O)[O-])c1 | inconclusive [inhibitor, single point]
Cc1ccc(S(=O)(=O)NCC(c2ccccc2)N2CCN(c3ccc(F)cc3)CC2)cc1 (centres undefined) | inconclusive [inhibitor, single point]
Fc1ccc(Oc2nnnn2-c2ccccc2)cc1 | inactive
CCn1c(=O)c(C(=O)NNC(=O)c2ccccc2Br)c(O)c2ccccc21 | inconclusive [inhibitor, single point]
CC(C)NC(=O)Cn1c(SCC(=O)N2CCCCCC2)nc2ccccc21 | inconclusive [inhibitor, single point]
O=C(O)Cn1c(SCCOc2ccccc2F)nc2ccccc21 | inconclusive [inhibitor, single point]
c1coc(-c2nnc(-c3ccco3)nn2)c1 | inconclusive [inhibitor, full curve, poor fit]
COc1ccc(C(=O)CCC(=O)N2CCN(c3ccccc3)CC2)cc1 | inactive
Cc1nc(N2CCOCC2)c2c(C)c(C(=O)Nc3ccc(F)cc3F)sc2n1 | inconclusive [inhibitor, single point]
O=c1cc(-c2ccc(O)cc2)oc2cc(OC3OC(CO)C(O)C(O)[C@H]3O[C@@H]3OC[C@@](O)(CO)C3O)cc(O)c12 (some centres undefined) | inactive
COc1cc(/C=N/NC(=O)c2ccc3c(c2)OCCO3)cc(Br)c1O | inconclusive [inhibitor, partial curve]
FC(F)Oc1ccccc1/C=N/n1cnc2ccccc21 | inconclusive [activator, single point]
CCCNC(=O)OCCC12CC3CC(CC(C3)C1)C2 | inconclusive [inhibitor, single point]
O=C(N/N=C/c1c[nH]c2ccccc12)c1cc(Cl)ccc1O | active: 6.31 µM
COc1ccccc1/C=N\NC(=O)c1c(C)nc2ccc(Cl)cn12 | inconclusive [inhibitor, single point]

SMILES | Potency
CCn1cc(C(=O)NC2CC(C)(C)Cc3c2cnn3-c2cccc(F)c2)cn1 (centres undefined) | inconclusive [inhibitor, single point]
Cc1nc2ccc(NC(=O)c3cc(Cl)ccn3)cc2s1 | inconclusive [inhibitor, single point]
CC(C)NC(=S)NC(=O)/C=C/c1ccc(F)cc1 | active: 7.08 µM
Cc1nn(-c2ccccc2)c2sc(C(=O)N(CC(=O)NC3CCCC3)Cc3ccco3)cc12 | inactive
CC1=NNC(=O)/C1=C\c1cn(-c2ccccc2)nc1-c1cccs1 | active: 4.47 µM
N#Cc1c(/N=C/C=C/c2ccccc2)sc2c1CCCC2 | inactive
CCC(C)(c1nnnn1-c1c(C)cccc1C)N(N=O)c1ccccc1Cl (centres undefined) | inconclusive [inhibitor, single point]
Clc1nc(Nc2ccccc2)nc(Nc2ccccc2)n1 | inconclusive [activator, partial curve, poor fit]
Cc1ccc(/C=C(\NC(=O)c2ccccc2)C(=O)OCc2ccccc2)cc1 | inactive
Cc1ccc(-n2ncc3c(SCC(N)=O)ncnc32)cc1C | inconclusive [inhibitor, partial curve]
Cc1cccc(C2c3[nH]c4ccccc4c3CCN2C(=O)c2cc(CC(C)C)[nH]c(=O)n2)n1 (centres undefined) | inconclusive [inhibitor, single point]
COc1ccnc(CSC(N)=Nc2ccccc2OC)c1 | inconclusive [inhibitor, single point]
CC(C)Cc1ccc(C(C)C(=O)Nc2ccccc2O)cc1 (centres undefined) | inconclusive [inhibitor, single point]
CCOC(=O)c1sc(NC(=O)CSc2nnc(Cc3ccccc3)o2)c(C#N)c1C | inactive
Cc1ccc(C(=O)NC(=S)Nc2cccc(NC(=O)c3ccccc3)c2)cc1[N+](=O)[O-] | active: 3.55 µM
COc1ccc(-c2ccc(=O)n(CC(=O)Nc3ccc4c(c3)OCCO4)n2)cc1 | inconclusive [inhibitor, single point]
Cc1c(C(=O)NN2CCOCC2)oc2ccccc12 | inactive
CCN1CCC[C@@H]1CNC(=O)c1cc(S(N)(=O)=O)ccc1OC | inactive
CC(=O)NS(=O)(=O)c1ccc(NC(=S)NC(=O)C(C)(C)C)cc1 | inconclusive [inhibitor, single point]
COc1ccc(OC)c(NC(=O)COC(=O)CSc2ccc(Cl)cc2)c1 | inconclusive [activator, single point]
COc1cc(C)nc(N2CCCC(C(=O)NC3CCC(C)CC3)C2)n1 (centres undefined) | inactive
Cn1c(Cn2nnc(-c3ccccc3)n2)nnc1SCc1ccccc1Cl | active: 11.2 µM
N#C/C(=N\Nc1ccc(S(=O)(=O)N2CCc3ccccc32)cc1)C(N)=S | inconclusive [inhibitor, single point]
Clc1c(Cl)c(Cl)c2n[nH]nc2c1Cl | inactive
Cc1ccsc1C(=O)Nc1ccc(OCc2ccccc2)cc1 | inconclusive [inhibitor, full curve]

SMILES | Potency
Cc1ccc(Nc2nc(N)nc(CCl)n2)cc1 | inconclusive [inhibitor, single point]
Cc1c(Cl)cccc1N=Cc1ccc([N+](=O)[O-])s1 | active: 20 µM
CCC(=O)Nc1c2c(nc3c1CCC3)CCCC2 | inactive
Cc1ccc(NC(=O)c2csnn2)c(C)c1 | inconclusive [activator, partial curve]
CCCCC1C(=O)N(c2ccccc2)N(c2ccc(O)cc2)C1=O (centres undefined) | active: 5.62 µM
O=S1(=O)N=C(Nc2nc3c(s2)CCCC3)c2ccccc21 | active: 1.26 µM
COCCNC(=S)N/N=C(\C)c1ccc(-n2ccnc2)cc1 | active: 7.08 µM
COc1ccc(-n2c(-c3cccc(OC)c3)nc(=S)c3c2CCCC3)cc1 | inconclusive [inhibitor, single point]
COc1ccc(C(=O)Cn2c(C)nc([N+](=O)[O-])c2Br)cc1 | inconclusive [inhibitor, single point]
FC(F)Oc1ccccc1/C=N/Nc1nc2ccccc2o1 | inconclusive [inhibitor, single point]
CCCc1ccc2oc(C(=O)N(C)Cc3cnccn3)c(C)c2c1 | inactive
COC(=O)/C=C1\N/C(=N\c2nc(C)cc(C)n2)N(c2ccc(C)c(C)c2)C1=O | inconclusive [inhibitor, single point]
S=c1nc[nH]c2c1cnn2Cc1ccccc1 | inconclusive [inhibitor, single point]
O=C(Nc1ccc(Cl)cc1)c1cnc(-c2ccccc2)nc1-c1ccccc1 | inconclusive [inhibitor, single point]
CN(C)S(=O)(=O)c1ccc(Cl)c(NC(=O)CSc2nc3c(cc2C#N)C(=O)CC(C)(C)C3)c1 | inconclusive [inhibitor, full curve, poor fit]
COc1ccc(Nc2nc(NC(C)(C)C)nc(N3CCCC3)n2)c(OC)c1 | inconclusive [inhibitor, single point]
COc1cc(/C=N\NC(=O)CC#N)ccc1OC/C=C/c1ccccc1 | inconclusive [inhibitor, single point]
O=C(CN1CCCc2ccccc21)N/N=C/c1ccccc1 | inconclusive [activator, single point]
CCN(CC)C(=N)/C(C#N)=N/Nc1ccc(C)cc1 | inactive
N#CCCN(C(=O)COC(=O)C1CCN(S(=O)(=O)c2cccs2)CC1)c1ccccc1 | inactive
CC(NC(=O)C12CC3CC(CC(O)(C3)C1)C2)c1ccccc1 (centres undefined) | inactive
Cc1nc2c(ccc3nc(NC(=O)c4ccc5c(c4)OCCO5)sc32)s1 | active: 0.0891 µM
Fc1ccccc1CSc1nncn1NC/C=C/c1ccccc1 | inconclusive [inhibitor, single point]
Cc1cc(O)c(/C=N/Nc2ccccc2Cl)c(=O)o1 | inactive
